# Measurements taken from the BET-seq Pho4 binding data (Le et al. 2018).
# The list shows a part of the results. Values were computed here from the reads of four pooled replicates and scatter widely.
# Molecular target: T1, Pho4 (S. cerevisiae) (UniProt P07270)
# T1 sequence: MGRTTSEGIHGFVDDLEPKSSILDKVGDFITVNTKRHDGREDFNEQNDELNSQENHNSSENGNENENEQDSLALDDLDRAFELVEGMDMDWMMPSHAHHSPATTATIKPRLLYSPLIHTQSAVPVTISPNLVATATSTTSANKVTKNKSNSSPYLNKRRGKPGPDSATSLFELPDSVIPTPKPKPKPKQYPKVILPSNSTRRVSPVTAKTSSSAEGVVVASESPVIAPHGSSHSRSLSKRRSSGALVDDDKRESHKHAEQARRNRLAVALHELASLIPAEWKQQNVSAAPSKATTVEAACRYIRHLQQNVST
# Experiment: relative binding free energy (BET-seq); higher = weaker binding
# Conditions: reference: library average
row,Sequence,relative binding free energy [kcal/mol]
1,TATTACACGTGTTTAT,0.21
2,ACTTTCACGTGATGGT,0.26
3,GGTTCCACGTGTATTT,0.19
4,ACGAGCACGTGTGTGG,-0.04
5,GACAGCACGTGTGGAG,0.06
6,GAGGGCACGTGTAGTC,-0.03
7,TCTTACACGTGAGTTT,0.26
8,GGTGTCACGTGAATTT,0.34
9,GTGTTCACGTGTGGGC,0.33
10,GATGGCACGTGTTTTT,-0.01
11,ATGGTCACGTGAATGG,0.28
12,CTGTTCACGTGTATAT,0.23
13,GTTTACACGTGGGAGT,0.04
14,TTAACCACGTGTGTGG,-0.11
15,AGTCGCACGTGAAGGT,0.31
16,TGGGACACGTGGTTCT,0.11
17,ACGGTCACGTGGTCTT,0.05
18,GTGGTCACGTGTCGCG,0.03
19,ATCATCACGTGGTGTT,0.13
20,TATTCCACGTGTCGTG,0.09
21,TAGAGCACGTGCGCGG,-0.25
22,GGACTCACGTGGGGTA,-0.03
23,TACGACACGTGGTAGG,-0.16
24,GCTGTCACGTGGCGTT,0.06
25,ATAGGCACGTGGAGTA,-0.18
26,CTTGTCACGTGGGGAT,-0.02

row,Sequence,relative binding free energy [kcal/mol]
1,GTGGGCACGTGATTAT,-0.01
2,TCTTGCACGTGTTTTT,-0.03
3,TTGTCCACGTGGTCAG,0
4,GTCGTCACGTGCAAGT,0.25
5,TAGGGCACGTGGGTCA,-0.23
6,GGTCACACGTGTAGAG,0.3
7,TGTCTCACGTGAGTTG,0.27
8,GTATACACGTGCTGGA,0.11
9,GTGGTCACGTGCGCTG,-0.09
10,AGTGACACGTGATGTT,0.07
11,ATGGGCACGTGATTTT,-0.03
12,GTGAACACGTGGTAGA,-0.06
13,GATGTCACGTGTGGTA,0.17
14,AAAGGCACGTGTTTTT,-0.06
15,TAAGTCACGTGCTTTT,0.01
16,TTGGACACGTGTGTAG,0.12
17,ATTAGCACGTGTGTAT,-0.14
18,GGAATCACGTGCAGGT,0.13
19,TCATGCACGTGGCTTT,-0.09
20,GGAGACACGTGAGTTG,0.26
21,TGTGGCACGTGTTGGT,0.04
22,TGGTTCACGTGGACAT,0.35
23,GGGTGCACGTGTATAT,0.09
24,GGTGGCACGTGACAAG,0
25,TATTTCACGTGCTTGG,0.21
26,TGGTACACGTGGGTGC,-0.06

row,Sequence,relative binding free energy [kcal/mol]
1,TTCGACACGTGTGTGG,0.15
2,TGTGCCACGTGTTGCT,-0.07
3,TTCGGCACGTGGTTAA,-0.1
4,TAGGACACGTGATTTA,0.11
5,TTCTACACGTGTTTTA,0.2
6,TTTTCCACGTGAAATG,0.42
7,GGTAACACGTGAGTCG,0.3
8,AGGACCACGTGGGGGC,-0.25
9,TTGCACACGTGGGGGG,-0.11
10,CAAGGCACGTGGTGAG,-0.2
11,GGATTCACGTGGGAGT,0.28
12,AGTGGCACGTGTGCTT,-0.08
13,CTAAACACGTGTGGTG,-0.09
14,CTCGTCACGTGGTATG,0.03
15,TAGTTCACGTGCAGTT,0.48
16,GCGTACACGTGTGGGT,0.14
17,AGAGACACGTGTATGG,0.04
18,AGGGGCACGTGGTGTA,-0.22
19,TGGGTCACGTGGGATT,0.03
20,GCGGGCACGTGTAGGG,-0.06
21,AGGGTCACGTGTGGGG,0.11
22,TTGGACACGTGTGACA,0.12
23,TCGGGCACGTGATGAT,0.13
24,TGGCACACGTGAGTTT,0.12
25,TTAGTCACGTGCTTAA,0.11
26,TATGCCACGTGAGTTT,0.18

row,Sequence,relative binding free energy [kcal/mol]
1,GGTATCACGTGGCCTT,0.17
2,CAGTTCACGTGAGGGG,0.31
3,GTTAGCACGTGAGGTC,0.09
4,GTGCTCACGTGGGTAT,0.16
5,AGGGTCACGTGCTGGA,-0.02
6,CTATTCACGTGTTGTT,0.18
7,TTAAGCACGTGGGGGG,-0.26
8,TGTATCACGTGGGTGA,0.01
9,TTGTGCACGTGGGTAG,-0.14
10,AAGAGCACGTGGGTCG,-0.24
11,GCGGGCACGTGGATAG,-0.11
12,TGATACACGTGCTGGT,-0.06
13,GTGCTCACGTGTCGGT,0.27
14,TGGGTCACGTGGCAAG,0.04
15,CTAGGCACGTGGGAGG,-0.27
16,AAAGGCACGTGGGAGT,-0.21
17,GGTCACACGTGGTAGT,0.08
18,TTTGCCACGTGGGTCG,-0.31
19,CTAAACACGTGGTTTG,0
20,GAGTTCACGTGGGTTC,0.26
21,CTCGGCACGTGGAAGG,0.15
22,CGACGCACGTGGGGTG,-0.23
23,GTCTGCACGTGATATT,0.31
24,GGGGTCACGTGGTTCG,0.24
25,GTGATCACGTGCGGTT,0.12
26,GAGTTCACGTGGTCTG,0.31

row,Sequence,relative binding free energy [kcal/mol]
1,CGAAACACGTGTTGGG,0.12
2,TGGTGCACGTGGTACA,-0.25
3,CTTGTCACGTGGAAGG,0.14
4,GTGGACACGTGGTACG,-0.03
5,CGTAGCACGTGATTTT,0.18
6,TTTAGCACGTGGGCTT,-0.18
7,TTAGTCACGTGGAGTC,0.11
8,ATGAGCACGTGGGGCG,-0.17
9,TATAACACGTGGGTCG,-0.15
10,AGGTACACGTGGTTGA,-0.01
11,GCGAGCACGTGAGAGG,0.23
12,AGGTGCACGTGGAAGG,-0.06
13,AATTCCACGTGTTTTT,0.16
14,TTGAGCACGTGGGAGG,-0.27
15,TAGGTCACGTGCATAG,0.13
16,TTGGGCACGTGAGGTC,0.08
17,GGTAGCACGTGCTCGG,-0.16
18,TTGATCACGTGTAGCG,0.21
19,GGTCGCACGTGATGGC,0.12
20,AATTGCACGTGCTTGA,0.04
21,ACATGCACGTGTTTTT,0.06
22,GTTTTCACGTGTAGCA,0.28
23,ATAGTCACGTGGTGAG,0.13
24,GAGGTCACGTGTATTT,0.22
25,TTTATCACGTGGAAGA,0.25
26,TAGGGCACGTGGTGTG,-0.08

row,Sequence,relative binding free energy [kcal/mol]
1,ATCTTCACGTGGGAGT,0.08
2,GAAATCACGTGATGTG,0.22
3,AGGAGCACGTGAGGAG,0.2
4,TAGTACACGTGTGTAG,0.02
5,AAGTGCACGTGGGTGG,-0.21
6,TAACTCACGTGAGGTG,0.28
7,AGCGACACGTGGGAGG,-0.06
8,ATATGCACGTGTTCGT,-0.1
9,GATCACACGTGTGGTG,0.18
10,ATCGGCACGTGTGGAA,0.06
11,TATGTCACGTGTTGTA,0.12
12,GCCGTCACGTGGTAGG,0.04
13,GGTATCACGTGAATTG,0.26
14,GGATGCACGTGAGGCG,0.24
15,TGGTACACGTGTATCG,0.08
16,TCTGGCACGTGGAGTT,0.08
17,TGGCGCACGTGTTGTC,-0.07
18,TGTGTCACGTGTACAT,-0.04
19,TAAGGCACGTGACGGT,-0.18
20,TCGGGCACGTGGCTTT,-0.21
21,TAGGACACGTGGGTGG,-0.18
22,GGCGGCACGTGGAAGG,-0.01
23,GGGTTCACGTGTGTCC,0.41
24,TGTTGCACGTGGATGG,0.13
25,CTTGGCACGTGTTTGA,-0.1
26,GCGGGCACGTGAGGGC,0.23

row,Sequence,relative binding free energy [kcal/mol]
1,TTAAGCACGTGATAGG,-0.01
2,TCATGCACGTGTATGG,0
3,AGTGGCACGTGTCGCT,-0.07
4,GAATTCACGTGGTGTG,0.24
5,TTTCACACGTGATGGC,0.24
6,GATTTCACGTGGCGTT,0.28
7,AATGGCACGTGTTTCG,-0.13
8,CGTAGCACGTGAGTGG,0.02
9,AGTGTCACGTGGCGCA,-0.02
10,CGCTTCACGTGGTGGA,0.13
11,AACAGCACGTGGTTGT,-0.27
12,AGTTGCACGTGGCGGT,-0.15
13,TGGTGCACGTGCCGTG,-0.18
14,TAGTTCACGTGCTTAG,0.28
15,ACTTGCACGTGTGTGG,-0.03
16,CGAGGCACGTGAGGCT,0.16
17,CAGGGCACGTGTTTGG,-0.04
18,TTTAGCACGTGTTTGA,-0.06
19,GCGATCACGTGGCGGG,0.12
20,GTGGGCACGTGGGTTA,-0.22
21,TTGGACACGTGATTGT,0.22
22,AGTCACACGTGGGAAG,-0.03
23,GTGGGCACGTGGGATG,-0.13
24,GGTATCACGTGGGTTC,0.08
25,GGGCTCACGTGGGAGA,0.11
26,TACTGCACGTGTGTGC,0.09

row,Sequence,relative binding free energy [kcal/mol]
1,AGCAGCACGTGGGGAG,-0.19
2,AATCACACGTGTTTGT,-0.06
3,CGTAACACGTGGTGTA,-0.12
4,TATTGCACGTGAGGTC,0.24
5,ATTCTCACGTGAGATT,0.39
6,TGCGGCACGTGTGTTA,0.01
7,AATAACACGTGGTGTA,-0.18
8,GACGGCACGTGGCGTG,-0.13
9,AAGGGCACGTGAGTTG,0.14
10,GTGGGCACGTGGTCAA,-0.13
11,AGAGGCACGTGGAGGT,0.02
12,AGAAACACGTGGCGGT,-0.03
13,AGTCACACGTGGTAGG,-0.08
14,ATTTTCACGTGGTAGA,0.23
15,AGCCGCACGTGGTGAG,-0.11
16,TCTTTCACGTGGGGCC,0.27
17,AGGTTCACGTGAAGGC,0.43
18,CGGGCCACGTGGTATG,-0.23
19,TTCGGCACGTGATGTC,0.1
20,ATAGACACGTGTATAT,-0.01
21,TAGATCACGTGCGATT,0.2
22,AAGGTCACGTGAGGGG,0.3
23,TGGCGCACGTGGTACA,-0.09
24,AGATGCACGTGTGCTA,-0.01
25,AGAGTCACGTGACGGT,0.35
26,TCAGGCACGTGTAGTT,-0.07

row,Sequence,relative binding free energy [kcal/mol]
1,ATGGGCACGTGGCGTT,-0.31
2,TGATGCACGTGGGTTG,-0.14
3,GAGTGCACGTGGTGAA,-0.01
4,GGGGACACGTGTGCAT,0.02
5,AGCGTCACGTGTGTGG,0.15
6,ATTTTCACGTGGTATG,0.24
7,GGTATCACGTGGGGTC,0.12
8,ATTAACACGTGAGGAG,0.18
9,GTGGTCACGTGGATTT,0.23
10,CGATGCACGTGGCGTG,-0.11
11,GTGGACACGTGAAATG,0.26
12,GTCTGCACGTGGGTAA,-0.09
13,TTGGGCACGTGGGTGA,-0.23
14,ATGTGCACGTGGAGTT,-0.02
15,GCTATCACGTGTATGT,0.16
16,GGTACCACGTGTGATG,0.08
17,AGTGCCACGTGTGTGT,-0.14
18,ATATGCACGTGGGCGT,-0.24
19,ATGCGCACGTGTCTGG,-0.12
20,AAGTGCACGTGGTTAG,0.02
21,GTATGCACGTGCTCGG,-0.08
22,TCGGGCACGTGTCATG,-0.11
